Drawing on the supplement of paper PMC11880418, this text covers ALDHbr for 34 compounds.

Counter-ions that a name gives are not always drawn. The list shows a part of the results. The data scatter; read single values as rough.
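Also: High-content imaging of ALDEFLUOR-stained cells with Hoechst-labelled nuclei in 384-well plates, triplicate wells, scored as Z-score against 0.1% DMSO vehicle, negative meaning fewer ALDHbr cells.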

The assay has as its system T84. As to the kind of experiment: ALDHbr (CSC) cell proportion score relative to DMSO vehicle (ratio to DMSO); breast (SUM159) / gastric (MKN45) / pancreatic (PANC1) / colon cancer lines; ALDHbr cells have high ALDH activity and are rich in cancer stem cells (CSC); higher = more CSC (ALDHbr) cells remaining. The settings on record: 10 µM; 72 h.
Regarding `CN(N=O)C(=O)N[C@H]1C(O)O[C@H](CO)[C@@H](O)[C@@H]1O` (mixture of isomers) [Streptozotocin], the ALDHbr is 0.863.
Turning to `CC[N+](CC)(CC)CCOc1cccc(OCC[N+](CC)(CC)CC)c1OCC[N+](CC)(CC)CC` [Gallamine triethiodide], the ALDHbr turned out to be 1.1.
Consider `CN(C)CCOC(c1ccc(Cl)cc1)c1ccccn1` (centres undefined) [Carbinoxamine maleate salt], for which the ALDHbr is 1.19.
Under `O=C(O)[C@H]1/C(=C/CO)O[C@@H]2CC(=O)N21` [Clavulanate potassium salt] stands 0.914; under `O=S(=O)(O)CCS` [Mesna], 1.06.
Under `CCOc1ccc(NC(C)=O)cc1` [Phenacetin] stands 0.96; under `NS(=O)(=O)c1cc2c(cc1C(F)(F)F)NC(Cc1ccccc1)NS2(=O)=O` (centres undefined) [Bendroflumethiazide], 0.987; under `COc1cc(C)c(/C=C/C(C)=C/C=C/C(C)=C/C(=O)O)c(C)c1C` [Acitretin], 0.823.
With `CC#C[C@]1(O)CC[C@H]2[C@@H]3CCC4=CC(=O)CCC4=C3[C@@H](c3ccc(N(C)C)cc3)C[C@@]21C` [Mifepristone] the figure was 0.504.
Regarding `COc1cc(-c2ccc(=O)[nH]n2)ccc1OC(F)F` [Zardaverine], the ALDHbr worked out at 0.902.
Take `Nc1nc2[nH]cc(CCc3ccc(C(=O)N[C@@H](CCC(=O)O)C(=O)O)cc3)c2c(=O)[nH]1` [Pemetrexed disodium]: the ALDHbr came out at 0.408.
Under `O=C(O)c1ccccc1OP(=O)(O)O` [Fosfosal] stands 0.947.
With `CCc1nn(CCCN2CCN(c3cccc(Cl)c3)CC2)c(=O)n1CCOc1ccccc1` [Nefazodone hydrochloride] the figure was 0.911; with `COc1cc(NC(C)CCCN)c2ncccc2c1` (centres undefined) [Primaquine diphosphate], 0.563; with `Cn1cnc2c1c(=O)[nH]c(=O)n2C` [Theobromine], 0.963.
Take `CC(=O)OCC(=O)[C@@]1(O)CC[C@H]2[C@@H]3CCC4=CC(=O)C=C[C@]4(C)[C@@]3(F)[C@@H](O)C[C@@]21C` [Isoflupredone acetate]: the ALDHbr is 0.856.
Under `CC(=O)CCCCn1c(=O)c2c(ncn2C)n(C)c1=O` [Pentoxifylline] stands 0.826.
With `O=C1c2cccc3c2[C@H](CCC3)CN1[C@@H]1CN2CCC1CC2` [Palonosetron hydrochloride], the ALDHbr amounted to 0.799.
With `CC(C)(C)NCC(O)COc1cccc2c1CCC(=O)N2` (centres undefined) [Carteolol hydrochloride] the figure was 0.922; with `CCCc1nc2c(C)cc(-c3nc4ccccc4n3C)cc2n1Cc1ccc(-c2ccccc2C(=O)O)cc1` [Telmisartan], 0.692; with `N[C@@H](Cc1ccc(O)c(O)c1)C(=O)O` [Levodopa], 1.02.
Under `CC(=O)N(CC(C)C(=O)O)c1c(I)cc(I)c(N)c1I` (centres undefined) [Iocetamic acid] stands 0.829.
For the compound `CCOc1cc(CC(=O)N[C@@H](CC(C)C)c2ccccc2N2CCCCC2)ccc1C(=O)O` [Repaglinide], the ALDHbr was found to be 0.911.
Under `CCCc1ncc(C[n+]2ccccc2C)c(N)n1` [Amprolium hydrochloride] stands 0.848; under `CN1CCC(OC(c2ccccc2)c2ccccc2)CC1` [Diphenylpyraline hydrochloride], 0.969; under `Cn1c(=O)c2c(ncn2CCO)n(C)c1=O` [Etofylline], 1.02.
With `C#C[C@]1(O)CC[C@H]2[C@@H]3CCc4cc(OC)ccc4[C@H]3CC[C@@]21C` [Ethynylestradiol 3-methyl ether] the figure was 0.919.
As for `Cc1cccc(CN2CCN(C(c3ccccc3)c3ccc(Cl)cc3)CC2)c1` (centres undefined) [Meclozine dihydrochloride], the ALDHbr turned out to be 0.934.
Under `CCN1CCCC(OC(=O)C(c2ccccc2)c2ccccc2)C1` (centres undefined) [Piperidolate hydrochloride] stands 0.999; under `CC[C@H]1OC(=O)[C@H](C)[C@@H](O[C@H]2C[C@@](C)(OC)[C@@H](O)[C@H](C)O2)[C@H](C)[C@@H](O[C@@H]2O[C@H](C)C[C@H](N(C)C)[C@H]2O)[C@](C)(O)C[C@@H](C)/C(=N\OCOCCOC)[C@H](C)[C@@H](O)[C@]1(C)O` [Roxithromycin], 0.915.
Under `Cc1cccc(C)c1OCC(C)N` (centres undefined) [Mexiletine hydrochloride] stands 3.62; under `NC(=O)N1c2ccccc2CC(=O)c2ccccc21` [Oxcarbazepine], 1.06.
With `NC(CO)C(=O)NNCc1ccc(O)c(O)c1O` (centres undefined) [Benserazide hydrochloride], the ALDHbr is 0.878.
As to `CCCN1CCCC[C@H]1C(=O)Nc1c(C)cccc1C` [Ropivacaine hydrochloride], the ALDHbr amounted to 0.944.
